Common to all, as to assay: universal protein binding microarray (PBM)
Details in all cases: transcription factors of Arabidopsis thaliana; high values mean tight binding; most listed sequences are background and not binding sites; double strand, one strand shown

The target in test [1] is T1, GST-ANAC092(1-176) (UniProt Q9FKA0).
T1 sequence: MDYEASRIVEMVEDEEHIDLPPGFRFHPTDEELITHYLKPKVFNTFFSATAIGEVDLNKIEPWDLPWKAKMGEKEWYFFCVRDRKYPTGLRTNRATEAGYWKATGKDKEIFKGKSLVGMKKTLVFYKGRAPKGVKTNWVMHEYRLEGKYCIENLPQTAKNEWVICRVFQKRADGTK

Test [2] addresses T2, GST-ANAC019 NAC domain (UniProt Q9C932).
T2 sequence: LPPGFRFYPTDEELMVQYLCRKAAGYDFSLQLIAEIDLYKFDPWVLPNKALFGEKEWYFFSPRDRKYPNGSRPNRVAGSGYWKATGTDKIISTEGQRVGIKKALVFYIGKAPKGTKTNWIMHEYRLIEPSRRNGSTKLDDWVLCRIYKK

The target in test [3] is T3, GST-ANAC055(1-171) (UniProt Q9LDY8).
T3 sequence: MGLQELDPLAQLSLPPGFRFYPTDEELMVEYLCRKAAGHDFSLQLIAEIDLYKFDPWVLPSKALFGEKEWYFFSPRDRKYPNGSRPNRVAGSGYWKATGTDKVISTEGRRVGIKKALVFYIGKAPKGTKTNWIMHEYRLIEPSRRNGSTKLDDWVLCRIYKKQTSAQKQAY

Test [4] deals with T4, GST-ATAF1 NAC domain (UniProt Q39013).
T4 sequence: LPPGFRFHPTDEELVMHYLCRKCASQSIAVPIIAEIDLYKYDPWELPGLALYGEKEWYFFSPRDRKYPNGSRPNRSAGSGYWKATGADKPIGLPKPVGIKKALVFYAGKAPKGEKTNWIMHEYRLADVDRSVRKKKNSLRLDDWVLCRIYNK

Test [5] deals with T5, GST-ANAC092(1-285) full length (UniProt Q9FKA0).
T5 sequence: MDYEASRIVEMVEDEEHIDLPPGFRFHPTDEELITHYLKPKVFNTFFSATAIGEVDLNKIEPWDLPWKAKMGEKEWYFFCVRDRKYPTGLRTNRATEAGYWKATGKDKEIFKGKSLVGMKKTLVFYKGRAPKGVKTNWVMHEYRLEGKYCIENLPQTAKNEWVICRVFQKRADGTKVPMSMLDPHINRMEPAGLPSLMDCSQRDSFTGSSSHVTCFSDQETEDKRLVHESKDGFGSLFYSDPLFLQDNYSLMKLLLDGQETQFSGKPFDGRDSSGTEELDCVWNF

Test [6] has as its target T6, GST-NAP(1-166) (UniProt O49255).
T6 sequence: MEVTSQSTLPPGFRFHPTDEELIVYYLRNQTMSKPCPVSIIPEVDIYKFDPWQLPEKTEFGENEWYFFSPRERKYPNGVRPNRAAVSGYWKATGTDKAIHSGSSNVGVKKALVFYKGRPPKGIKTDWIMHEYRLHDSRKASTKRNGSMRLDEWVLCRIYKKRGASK

Test [7] addresses T7, GST-NST2(1-184) (UniProt Q9M274).
T7 sequence: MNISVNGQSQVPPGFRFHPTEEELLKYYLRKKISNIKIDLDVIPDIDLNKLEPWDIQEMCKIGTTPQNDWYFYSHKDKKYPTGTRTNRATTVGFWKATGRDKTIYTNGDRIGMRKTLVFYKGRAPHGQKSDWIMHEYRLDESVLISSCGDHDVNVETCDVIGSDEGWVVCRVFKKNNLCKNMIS

In test [8] the target is T8, GST-NTL8 NAC domain (UniProt Q9XIN7).
T8 sequence: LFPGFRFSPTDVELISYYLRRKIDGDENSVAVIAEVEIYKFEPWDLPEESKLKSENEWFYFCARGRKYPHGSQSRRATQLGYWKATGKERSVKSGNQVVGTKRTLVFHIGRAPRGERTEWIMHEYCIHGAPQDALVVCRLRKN

In test [9] the target is T9, GST-SND1(1-203) (UniProt Q9LPI7).
T9 sequence: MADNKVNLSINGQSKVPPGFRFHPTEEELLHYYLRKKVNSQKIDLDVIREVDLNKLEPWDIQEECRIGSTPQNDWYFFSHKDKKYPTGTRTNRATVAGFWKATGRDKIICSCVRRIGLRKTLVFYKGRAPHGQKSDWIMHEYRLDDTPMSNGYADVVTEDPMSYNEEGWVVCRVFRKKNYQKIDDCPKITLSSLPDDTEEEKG

Test [10] deals with T10, GST-VND3 NAC domain (UniProt Q9FH59).
T10 sequence: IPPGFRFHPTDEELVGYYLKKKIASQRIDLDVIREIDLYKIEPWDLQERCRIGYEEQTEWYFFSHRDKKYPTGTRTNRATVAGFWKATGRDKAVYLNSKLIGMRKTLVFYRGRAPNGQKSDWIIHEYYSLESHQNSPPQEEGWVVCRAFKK

The target of test [11] is T11, GST-VND7 NAC domain (UniProt Q9C8W9).
T11 sequence: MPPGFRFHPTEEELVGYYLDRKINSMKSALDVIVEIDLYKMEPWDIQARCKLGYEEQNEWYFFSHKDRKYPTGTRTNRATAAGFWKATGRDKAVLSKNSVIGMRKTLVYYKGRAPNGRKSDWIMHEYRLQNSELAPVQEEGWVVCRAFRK

The target in test [12] is T12, GST-VOZ2 (Arabidopsis thaliana) (UniProt Q9SLB9).
T12 sequence: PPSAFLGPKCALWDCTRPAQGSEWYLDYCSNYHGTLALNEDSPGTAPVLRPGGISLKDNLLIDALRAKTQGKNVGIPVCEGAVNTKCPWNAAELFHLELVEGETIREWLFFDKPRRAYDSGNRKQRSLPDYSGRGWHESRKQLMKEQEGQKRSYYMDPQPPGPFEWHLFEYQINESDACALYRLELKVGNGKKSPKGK

The target in test [13] is GST-WRKY1(266-371) (UniProt Q9SI37).
For test [14], the target named is GST-NTL6(1-168) (UniProt Q9SCK6).

The list shows a part of the results, in another mix than the full data. For some of these results: At the low end of the ranking the order means little. The list shows a part of the results. For some of these results: The source does not settle which construct or isoform was used.

For the sequence TGACCTAA, the binding signal in test [1] was 0.0134 E-score; in [2] it was -0.0367 E-score; in [3], -0.0308 E-score; in test [4], 0.0102 E-score; in test [5], -0.0286 E-score; in [6], -0.105 E-score. In addition, the binding signal in [7] was -0.0243 E-score; in test [8], 0.032 E-score; in test [9] it was -0.0828 E-score; in test [10], -0.0287 E-score; in [11] it was -0.124 E-score; in [12], -0.0148 E-score. The sequence further returned a binding signal in test [13] of 0.419 E-score.

Regarding ACGGAACT, the binding signal in test [14] came to 0.012 E-score; in test [3] it was 0.438 E-score; in test [6], 0.452 E-score; in test [9], 0.178 E-score; in test [10] it was 0.417 E-score; in test [11] it was 0.445 E-score. The values for the binding signal in test [12] and in test [13] were 0.0277 E-score and 0.0348 E-score, respectively.

As for TACACGCA, the binding signal in [1] is 0.467 E-score; in test [3] it was 0.382 E-score; in test [8], 0.0162 E-score; in test [9], 0.385 E-score; in [10], 0.404 E-score; in [11], 0.385 E-score. Also, the figures for the binding signal in test [12] and in test [13] were 0.213 E-score and 0.00482 E-score, respectively.

As for AGGTCAGA, the binding signal in test [1] is -0.0113 E-score; in test [2], 0.0194 E-score; in [3] it was -0.0771 E-score; in test [4], -0.0236 E-score; in test [5], -0.0821 E-score; in test [6] it was -0.0842 E-score. The binding signal in test [7] is -0.026 E-score; in [8], 0.0346 E-score; in test [9], -0.109 E-score; in test [10], -0.0583 E-score; in test [11], -0.142 E-score; in [12] it was 0.0759 E-score. In test [13], this sequence registered a binding signal of 0.449 E-score.

Turning to CCACGTAA, the binding signal amounted to 0.432 E-score in [2]; 0.306 E-score in [4]; 0.308 E-score in test [6]; 0.167 E-score in test [8]; 0.0962 E-score in test [9]; 0.326 E-score in [10]. Besides, the figures for the binding signal in test [11], in test [12] and in [13] were 0.341 E-score, 0.0743 E-score and 0.0192 E-score, respectively.

For AGCGTGTC, the binding signal was -0.0828 E-score in [14]; 0.174 E-score in test [3]; -0.0427 E-score in test [8]; 0.131 E-score in test [9]; 0.156 E-score in [10]; 0.208 E-score in test [11]. Also, the binding signal was -0.0601 E-score in [12] and 0.0118 E-score in test [13].

As to TGACTAAA, the binding signal was 0.0255 E-score in test [1]; 0.0547 E-score in [14]; 0.033 E-score in test [3]; 0.00799 E-score in test [4]; 0.0456 E-score in test [5]; -0.0767 E-score in test [6]. Also, the binding signal is -0.0621 E-score in test [8]; -0.0391 E-score in test [9]; 0.0682 E-score in test [10]; 0.0902 E-score in test [11]; 0.00633 E-score in test [12]; 0.42 E-score in [13].

Take GCCGTGTA: the binding signal was 0.341 E-score in test [1]; -0.11 E-score in test [14]; 0.314 E-score in test [4]; 0.235 E-score in test [6]; -0.128 E-score in test [8]; 0.0913 E-score in test [9]. Also, the binding signal was 0.347 E-score in test [10], 0.351 E-score in [11], -0.17 E-score in [12] and -0.12 E-score in test [13].

As to GTCAAAAA, the binding signal in test [14] was -0.011 E-score; in [3] it was 0.0493 E-score; in test [6], -0.0635 E-score; in [7], 0.121 E-score; in [9] it was 0.216 E-score; in [10], 0.0339 E-score. Moreover, the values for the binding signal in [11], in test [12] and in test [13] were 0.0546 E-score, 0.168 E-score and 0.442 E-score, respectively.

Take AGGTTTCC: the binding signal was -0.0192 E-score in test [1]; 0.0846 E-score in test [2]; 0.034 E-score in [3]; -0.0104 E-score in [4]; 0.0149 E-score in test [5]; -0.0194 E-score in test [6]. Besides, the binding signal in test [8] was 0.457 E-score; in test [9], -0.0729 E-score; in test [10], 0.0315 E-score; in test [11] it was -0.0642 E-score; in [12], -0.0912 E-score; in test [13], -0.143 E-score.

As for AGGAAACT, the binding signal is 0.174 E-score in test [1]; 0.0277 E-score in test [2]; 0.0881 E-score in test [6]; 0.125 E-score in [7]; 0.426 E-score in test [8]; 0.041 E-score in test [9]. The binding signal in test [10] is 0.0144 E-score; in test [11], 0.131 E-score; in [12], -0.0326 E-score; in [13], -0.0336 E-score.

With GGAGGAAA, the binding signal is 0.146 E-score in test [14]; -0.0683 E-score in test [2]; -0.0697 E-score in test [3]; -0.0282 E-score in [4]; 0.0249 E-score in test [5]; 0.0241 E-score in [6]. In addition, the binding signal is 0.0324 E-score in test [7]; 0.031 E-score in [9]; -0.0652 E-score in [10]; -0.103 E-score in test [11]; -0.0711 E-score in [12]; -0.203 E-score in test [13].

As for GAGGGAAA, the binding signal was 0.11 E-score in test [1]; -0.0734 E-score in test [3]; 0.0327 E-score in [4]; -0.0658 E-score in [5]; -0.0367 E-score in test [7]; 0.0484 E-score in [9]. Also, the binding signal in test [10] was 0.00198 E-score; in [11], 0.0212 E-score; in [12] it was -0.0477 E-score; in test [13], -0.11 E-score.

Turning to GGGTCAAA, the binding signal in [14] is -0.0453 E-score; in test [2] it was -0.0521 E-score; in test [3], -0.00511 E-score; in test [4], -0.0413 E-score; in [5] it was 0.00507 E-score; in test [6], -0.163 E-score. Moreover, the binding signal in test [8] is 0.00301 E-score; in test [9], 0.0079 E-score; in [10], -0.0717 E-score; in test [11], -0.134 E-score; in [12], -0.0201 E-score; in [13] it was 0.48 E-score.

As to CTCTTGAC, the binding signal in test [14] was -0.00404 E-score; in test [3], 0.00234 E-score; in test [5], -0.00598 E-score; in test [6] it was 0.0978 E-score; in test [7] it was 0.0336 E-score; in test [8], -0.0117 E-score. Moreover, the binding signal in [9] is 0.0466 E-score; in [10], 0.0128 E-score; in [11], 0.0151 E-score; in [12], -0.0906 E-score; in test [13] it was 0.449 E-score.
